Hit rate of the full screen: of about 43,000 compounds, about 200 (0.47%) were called active. Not shown: some 12% with an inconclusive outcome. Calls come from the whole dose curve; as a rule, active = well fitted cell-killing curve with a large enough effect; inconclusive = small, poorly fitted or top-dose-only effect, or effect the other way; inactive = flat fitted curve, though single readings scatter. Some of the results follow.
Test: Cell viability qHTS assay in S16 Pmp22-F2sN cells; note: nearly all actives have a fitted effect of over 65% in size
Conditions: S16 Pmp22-F2sN Schwann cells (luciferase reporters placed in the Pmp22 gene) viability, CellTiter-Glo, 24 h; series mostly up to 57.5 µM; activity change, negative = cytotoxicity: at the top concentration
In short: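 S16 Schwann cells carrying the Pmp22-F2sN reporter, seeded in 1536-well format, were exposed to library compounds for 24 h at 37C. Viability was read as CellTiter-Glo luminescence after 15 min at room temperature.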
% is set by controls: 0 for no effect and ±100 for the full control effect.

SMILES	activity change, negative = cytotoxicity
CCOC(=O)c1ccc(NC(=O)C(Cc2ccccc2)NS(=O)(=O)c2ccc(Br)s2)cc1 (configuration not stated)	inactive: -2.94%
CCOC(=O)c1c(C)oc2nc(C)nc(NCc3ccccc3OCC)c12	inactive: 0.94%
Cc1cc(C)cc(Nc2sc(C(=O)c3ccccc3)c(N)c2S(=O)(=O)c2ccccc2)c1	inactive: -17.6%
CC(=O)Nc1ccc(C2Nc3c(C)cc(C)cc3-c3cc(C)nn32)cc1 (configuration not stated)	inactive: -8.12%
Cc1ccc(S(=O)(=O)NCCSc2nnnn2-c2ccc(Cl)c(C(=O)O)c2)cc1	inactive: 2.3%
O=C(NCc1ccccc1Cl)C1CCCN(c2ncnc3onc(-c4ccc(F)cc4)c23)C1 (configuration not stated)	inactive: -7.88%
CCCc1nc2ccccc2n2c(-c3cccc(C)c3)c3c(=O)n(C)c(=O)n(C)c3c12	inactive: 2.93%
CCc1nn(CC(=O)NC(C)c2ccccc2)c(=O)c2cc3sccc3n12 (configuration not stated)	inactive: 3.01%
CCOC(=O)C1=C(CS(=O)(=O)c2ccc(F)cc2)NC(=O)NC1c1ccc(OCC)c(OC)c1 (configuration not stated)	inactive: 7.37%
CC(C)CCNC(=O)[C@@H](c1ccccc1)N1Cc2ccccc2C1=O	inactive: 0.562%
CCOc1ccc(NC(=O)Cn2nnc(C(=O)Nc3ccc(OCC)cc3)c2N)cc1	inactive: 1.18%
Cc1ccc(C)c(N2CCN(c3cc(C)nc4c(-c5ccc(Cl)cc5)c(C)nn34)CC2)c1	inactive: 12%
Cc1cc(C)cc(OCC(=O)NCC2(N(C)C)CCCCC2)c1	inactive: 5.84%
O=C(COc1ccccc1-c1nc(-c2ccccc2)no1)Nc1ccccc1[N+](=O)[O-]	inactive: 9.03%
CCCc1cc(=O)n2[nH]c(NCc3ccccc3OC)nc2n1	inactive: 6.81%
Cc1ccc(S(=O)(=O)N2CCC(c3ccncc3)CC2)c(C)c1	inactive: -25%
Cc1cccc(CN2CCc3nc(N4CCN(c5ccccn5)CC4)ncc3C2)c1	inactive: 3.8%
CCc1ccc(NC(=O)Cn2c(=O)n(CCC(=O)NCc3ccc4c(c3)OCO4)c(=O)c3ccccc32)cc1	inactive: 0.473%
Cc1cc(NC(=O)c2cc(-c3ccc(Cl)cc3)on2)nn1Cc1ccc(Cl)cc1	inactive: -1.79%
CCC1CN(C(=O)Nc2cc(C)cc(C)c2)c2ccccc2O1 (configuration not stated)	inactive: -19.7%
CC(=O)c1ccc(NC(=O)CCc2c(C)nc3cc(-c4ccc(Cl)cc4)nn3c2C)cc1	inactive: -5.89%
Cc1ccc(C)c(NC(=O)CN(CCc2ccccc2)S(=O)(=O)c2ccccc2)c1	inactive: 3.79%
Cc1cccc(Cc2c(C)nc3nc(SCc4ccccc4C)nn3c2C)c1	inactive: -28.1%
COc1cccc(Cn2c(=O)n(-c3ccccc3C)c(=O)c3c2c2cc(C)ccc2n3C)c1	inactive: 3.85%

SMILES	activity change, negative = cytotoxicity
COc1cccc(NC(=O)C2CCN(C(=O)N3CC(C)Oc4ccccc43)CC2)c1 (configuration not stated)	inactive: -1.66%
Cc1ccc(CNC(=O)CN2C(=O)C3CCCCN3c3ccc(C(=O)N4CCCC4)cc32)cc1 (configuration not stated)	inactive: -5.46%
COc1ccc(Cl)cc1C(=O)Nc1ccc(-c2nnc3n2CCCCC3)cc1	inactive: 11.9%
O=C(NCc1ccccc1Cl)c1ccc2c(O)c(S(=O)(=O)c3ccccc3)c(=O)[nH]c2c1	inactive: 4.07%
CCCCOc1ccc(CNC(=O)c2cnc3sc(N4CCOCC4)nn3c2=O)cc1	inactive: -5.74%
COc1cccc(OCc2nc3ccccc3n2CCOc2ccccc2C)c1	inactive: 6.81%
CN(C)S(=O)(=O)c1ccc2c(c1)nnn2CCNC(=O)Nc1ccc(Br)cc1	inactive: -14.6%
O=C(C1CC1)N1CCN(c2nc3ccc(F)cc3s2)CC1	inactive: -15%
Cc1ccc(C)c(Nc2nn3c(=O)c4ccc(C(=O)NC5CCCCC5)cc4nc3s2)c1	inactive: -19.4%
COc1ccc(CCNC(=O)CCCCn2c(=O)c3ccccc3n(Cc3ccc(F)cc3Cl)c2=O)cc1OC	inactive: 5.07%
Cc1ccc(C(=O)NCC(c2cccnc2)N2CCc3ccccc32)cc1C (configuration not stated)	inactive: 0.918%
Fc1ccc(-c2cc(-c3ccccc3)c3c(n2)-c2cc(F)ccc2OC3)cc1	inactive: 8.19%
Cc1ccc(-c2c(C)n3c4c(=O)n(C)c(=O)n(C)c4nc3n2-c2cccc(O)c2)cc1	inactive: 7.49%
CC1CCN(S(=O)(=O)c2cc3c4c(c2)CC(=O)N4CCC3)CC1	inactive: -0.0589%
COc1ccc(S(=O)(=O)NCC(c2ccco2)N2CCOCC2)cc1 (configuration not stated)	inactive: -13.1%
Cc1cc(C)cc(NC(=O)CSc2oc(-c3cccs3)nc2S(=O)(=O)c2ccccc2)c1	inactive: 6.35%
COc1ccccc1Nc1nn2c(=O)c3ccc(C(=O)N4CCCCC4)cc3nc2s1	inactive: -13.3%
Cc1cccc(C)c1N1CC(c2nc3ccccc3n2CC(=O)OC(C)C)CC1=O (configuration not stated)	inactive: 17.3%
CCOC(=O)c1cc(S(=O)(=O)N2CCN(c3cc(C)ccc3C)CC2)[nH]n1	inactive: -2.96%
COc1cc(-c2ccno2)ccc1S(=O)(=O)N1CCN(c2ccccc2F)CC1	inactive: -7.03%
COC(=O)c1ccc(NC(=O)C(=O)NCCc2sc(-c3cccc(F)c3)nc2C)cc1	inactive: 1.5%
CCCN(CCC)C(=O)CSc1nc2ccccc2c(=O)n1Cc1ccco1	inactive: -18.5%
COc1ccc(CC(=O)NCc2nc3cccnc3n2Cc2ccc(C)cc2)cc1	inactive: 14.3%
